Reference: PubChem BioAssay AID485364 (National Center for Advancing Translational Sciences (NCATS), 2010)
Among all 360,000 compounds or so, about 11,000 (3.1%) were called active. The shares of active, inactive and inconclusive entries below differ from those in the screen. The call rests on the fitted dose curve; in most records, active means well fitted inhibition curve with a large enough effect; inconclusive means small, poorly fitted or top-dose-only effect; inactive means no such curve, though single readings can be large or run the other way. Potencies of inconclusive entries are left out as doubtful fits.

molecular target: Schistosoma mansoni thioredoxin glutathione reductase (TGR) (UniProt Q962Y6); assay: qHTS Assay for the Inhibitors of Schistosoma Mansoni Peroxiredoxins; settings: purified TGR, DTNB reduction, TNB absorbance 405 nm; activity change, negative = inhibition: at 114 µM (top of the series) unless noted; further: nearly all actives have a fitted effect of over 60% in size
Method in brief: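 Kinetic colorimetric format: TGR-catalysed, NADPH-driven DTNB reduction monitored via TNB absorbance. Enzyme dispensed at 20 nM; compound exposure 15 min at room temperature before reaction start.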
On the % scale 0 is the no-effect control and ±100 the full control effect; potency means the concentration at half of the fitted maximal effect; tags describe the fitted curve by direction and shape.

Row | Compound | Potency | activity change, negative = inhibition
1 | CCCSc1nc(N2CCCC2)c2c(c1C#N)CC(C)(C)OC2 | inconclusive [inhibitor, full curve, poor fit] | 
2 | O=C(CS(=O)(=O)c1ccccc1)Nc1ncc([N+](=O)[O-])s1 | inconclusive [inhibitor, partial curve] | 
3 | COC(=O)C(C)NC(=O)C1CCCN1C(=O)CNC(=O)OCc1ccccc1 (stereo not drawn) | inconclusive [inhibitor, single point] | 
4 | O=Cc1cc2cc3c(cc2nc1Cl)OCCO3 | inconclusive [inhibitor, partial curve, poor fit] | 
5 | O=C1NC(=S)NC(=O)C1=Cc1ccc(OCC(=O)N2CCCC2)cc1 | active: 10 µM | 
6 | COCCn1c(C)cc(C(=O)CSc2nnc(-c3cccnc3)n2-c2ccccc2F)c1C | inconclusive [inhibitor, partial curve] | 
7 | Cc1ccc(S(=O)(=O)N(C)/N=C2/C(=O)N(CC(=O)O)c3ccccc32)cc1 | inconclusive [inhibitor, partial curve] | 
8 | C=CCN(c1ccccc1)S(=O)(=O)c1cccc(C(=O)NCC2CCCO2)c1 (stereo not drawn) | inconclusive [inhibitor, single point] | 
9 | CCOc1ccc(C2C3=C(CC(C)(C)CC3=O)N(CC(=O)O)C3=C2C(=O)CC(C)(C)C3)cc1OCC | inconclusive [inhibitor, partial curve] | 
10 | CC(C)c1cc(CNC(=O)c2ccc(OC3CCN(Cc4ccccn4)CC3)cc2)on1 | inconclusive [inhibitor, partial curve] | 
11 | CC(=O)N1CCN(C(=O)CCc2nnc(CCCCc3ccccc3)o2)CC1 | active: 44.7 µM | 
12 | CCOc1ccc(-n2c(Cc3ccccc3)nnc2SCc2nc(-c3ccccc3OC)no2)cc1 |  | inactive: 4.22%
13 | COc1ccccc1CCNC(=O)CCSc1nc(-c2ccco2)cc(C(F)(F)F)n1 | inconclusive [inhibitor, partial curve] | 
14 | COc1cccc(C(=O)N2CCN(Cc3ccccc3Br)CC2)c1 |  | inactive: 1.49%
15 | Fc1ccc(NC(=S)Nc2cc(-c3ccccc3)[nH]n2)cc1Cl | inconclusive [inhibitor, partial curve] | 
16 | O=C(N/N=C/c1c(Cl)nc2ccccn2c1=O)c1cccnc1 | inconclusive [inhibitor, partial curve] | 
17 | Cc1ccc(C)n1-c1nnc(N2CCCC(C(=O)NCc3ccc(Cl)cc3)C2)s1 (stereo not drawn) | inconclusive [inhibitor, partial curve] | 
18 | Cc1ccc(OCC(=O)Nc2ccc(S(=O)(=O)Nc3cc(C)nc(C)n3)cc2)c(Br)c1 |  | inactive: -5.88%
19 | CC1CCCCN1C(=S)NCCc1ccccc1 (stereo not drawn) |  | inactive: 0.369%
20 | CN1C(C(=O)NCc2cccc(C(F)(F)F)c2)CC2Cn3c(nc4ccccc43)C21 (stereo not drawn) | inconclusive [inhibitor, partial curve] | 
21 | COCCNC(=O)/C(C#N)=C/c1cc(C)n(-c2ccc(C)cc2)c1C |  | inactive: -33%
22 | CCN(c1ccccc1)S(=O)(=O)c1ccc(C(=O)Nc2nnc(-c3ccco3)o2)cc1 | inconclusive [inhibitor, full curve, poor fit] | 

Row | Compound | Potency | activity change, negative = inhibition
23 | COc1cc(C2NC(=O)NC(O)(C(F)(F)F)C2C(=O)c2ccc(Cl)cc2)ccc1O (stereo not drawn) | inconclusive [inhibitor, full curve, poor fit] | 
24 | COc1cc(NC(=O)CCc2c(C)nn(-c3ccc4nncn4n3)c2C)cc(OC)c1OC |  | inactive: 6.46%
25 | Cc1cc(C)nc(SCc2nnc(SCC(=O)Nc3nc(-c4ccccc4)cs3)n2C)n1 | inconclusive [inhibitor, partial curve, poor fit] | 
26 | CCOc1ccc(NS(=O)(=O)c2ccc(NC(=S)NC(C)=O)cc2)cc1 |  | inactive: 7.93%
27 | CCN(C(=S)Nc1cccnc1)c1cccc2ccccc12 | inconclusive [inhibitor, partial curve] | 
28 | CC(=O)NC1=C(Nc2ccc(N(C)C)cc2)C(=O)c2ccccc2C1=O | inconclusive [inhibitor, partial curve] | 
29 | Cc1nn2c(c1-c1ccccc1)N=C(c1ccco1)CC2c1ccccc1 (stereo not drawn) | active: 10 µM | 
30 | O=C(COC(=O)C1CCC1)NCc1ccc(F)cc1 | inconclusive [inhibitor, single point] | 
31 | CCOC(=O)C1=C(C)N=C2SC(C(=O)OC)=CC(=O)N2C1c1cccc(OC)c1 (stereo not drawn) | inconclusive [inhibitor, full curve, poor fit] | 
32 | COc1cccc(/C=C/C(=O)OCC(=O)NCc2ccco2)c1 | inconclusive [inhibitor, partial curve] | 
33 | Cc1cccc(C(=O)N=c2c(C#N)cc3c(=O)n4cccc(C)c4nc3n2Cc2ccco2)c1 | active: 44.7 µM | 
34 | CCCNC(=O)N1[C@H]2CC[C@@H]1C(C(=O)OC)=C(c1ccc(OC)c(OC)c1)C2 | inconclusive [inhibitor, single point] | 
35 | CN(C)C(CNC1CC(C)(C)NC(C)(C)C1)c1cccc(F)c1 (stereo not drawn) | inconclusive [inhibitor, full curve, poor fit] | 
36 | Cc1cccc(-c2noc(CN(C(=O)COc3ccc(C(C)C)cc3)C(C)C)n2)c1 | inconclusive [inhibitor, single point] | 
37 | CN1CCN(C(CNC(=O)C(=O)Nc2ccccc2)c2ccc3c(c2)OCO3)CC1 (stereo not drawn) |  | inactive: -4.88%
38 | Cc1cc2cc(CCNC(=O)C(=O)c3c[nH]c4ccccc34)c(=O)[nH]c2cc1C |  | inactive: 14.9%
39 | Cc1cccc(SCC(=O)Nc2ccc3c(c2)OCCO3)c1 |  | inactive: 5.85%
40 | Cc1ccc(-c2nn(C)c(=O)c3ccccc23)cc1S(=O)(=O)NCCN(C)C |  | inactive: 10.5%
41 | O=S(=O)(NC(=S)NC1CCCCC1)c1cccs1 | active: 25.1 µM | 
42 | O=C(Cn1nc(-c2ccc3c(c2)OCCO3)ccc1=O)Nc1ccc(N2CCOCC2)cc1 | inconclusive [inhibitor, full curve, poor fit] | 
43 | O=C1NC(=O)N(Cc2ccccc2)C(=O)/C1=C/C=C/c1ccco1 | active: 6.31 µM | 
